Reference: paper PMC11876325
Where two headings read alike, the source gives them in different places. No constants are given. Whether binding was seen depends on the method and setting. Some binding calls cover weakened binding; strength is not graded here.

Chains of the proteins cited; added tags and fusions are not shown.
UniProt P24279: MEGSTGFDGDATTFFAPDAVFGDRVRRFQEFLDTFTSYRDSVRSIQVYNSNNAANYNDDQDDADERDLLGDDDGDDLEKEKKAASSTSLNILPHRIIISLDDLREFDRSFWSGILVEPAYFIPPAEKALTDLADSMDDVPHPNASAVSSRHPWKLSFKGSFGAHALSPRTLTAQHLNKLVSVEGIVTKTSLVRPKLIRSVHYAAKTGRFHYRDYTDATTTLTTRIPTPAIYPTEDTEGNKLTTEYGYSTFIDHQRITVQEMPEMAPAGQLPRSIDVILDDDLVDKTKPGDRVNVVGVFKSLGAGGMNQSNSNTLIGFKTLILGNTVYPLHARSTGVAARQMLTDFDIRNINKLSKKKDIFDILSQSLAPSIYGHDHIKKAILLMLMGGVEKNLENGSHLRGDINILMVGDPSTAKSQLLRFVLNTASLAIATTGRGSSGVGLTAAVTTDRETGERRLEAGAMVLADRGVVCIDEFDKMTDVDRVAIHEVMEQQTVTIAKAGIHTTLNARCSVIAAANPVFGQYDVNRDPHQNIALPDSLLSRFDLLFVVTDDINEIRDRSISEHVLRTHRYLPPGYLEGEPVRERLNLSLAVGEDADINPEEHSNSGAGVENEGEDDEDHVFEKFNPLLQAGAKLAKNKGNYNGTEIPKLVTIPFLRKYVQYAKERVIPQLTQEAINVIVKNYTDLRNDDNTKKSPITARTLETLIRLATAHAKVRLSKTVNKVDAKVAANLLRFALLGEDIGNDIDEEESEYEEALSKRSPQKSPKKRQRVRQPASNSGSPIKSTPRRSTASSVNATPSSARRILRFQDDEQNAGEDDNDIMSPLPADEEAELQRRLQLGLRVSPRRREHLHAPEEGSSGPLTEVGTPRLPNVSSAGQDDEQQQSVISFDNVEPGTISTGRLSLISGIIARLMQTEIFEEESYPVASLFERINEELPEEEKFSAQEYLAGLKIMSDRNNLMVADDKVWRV
UniProt P53091: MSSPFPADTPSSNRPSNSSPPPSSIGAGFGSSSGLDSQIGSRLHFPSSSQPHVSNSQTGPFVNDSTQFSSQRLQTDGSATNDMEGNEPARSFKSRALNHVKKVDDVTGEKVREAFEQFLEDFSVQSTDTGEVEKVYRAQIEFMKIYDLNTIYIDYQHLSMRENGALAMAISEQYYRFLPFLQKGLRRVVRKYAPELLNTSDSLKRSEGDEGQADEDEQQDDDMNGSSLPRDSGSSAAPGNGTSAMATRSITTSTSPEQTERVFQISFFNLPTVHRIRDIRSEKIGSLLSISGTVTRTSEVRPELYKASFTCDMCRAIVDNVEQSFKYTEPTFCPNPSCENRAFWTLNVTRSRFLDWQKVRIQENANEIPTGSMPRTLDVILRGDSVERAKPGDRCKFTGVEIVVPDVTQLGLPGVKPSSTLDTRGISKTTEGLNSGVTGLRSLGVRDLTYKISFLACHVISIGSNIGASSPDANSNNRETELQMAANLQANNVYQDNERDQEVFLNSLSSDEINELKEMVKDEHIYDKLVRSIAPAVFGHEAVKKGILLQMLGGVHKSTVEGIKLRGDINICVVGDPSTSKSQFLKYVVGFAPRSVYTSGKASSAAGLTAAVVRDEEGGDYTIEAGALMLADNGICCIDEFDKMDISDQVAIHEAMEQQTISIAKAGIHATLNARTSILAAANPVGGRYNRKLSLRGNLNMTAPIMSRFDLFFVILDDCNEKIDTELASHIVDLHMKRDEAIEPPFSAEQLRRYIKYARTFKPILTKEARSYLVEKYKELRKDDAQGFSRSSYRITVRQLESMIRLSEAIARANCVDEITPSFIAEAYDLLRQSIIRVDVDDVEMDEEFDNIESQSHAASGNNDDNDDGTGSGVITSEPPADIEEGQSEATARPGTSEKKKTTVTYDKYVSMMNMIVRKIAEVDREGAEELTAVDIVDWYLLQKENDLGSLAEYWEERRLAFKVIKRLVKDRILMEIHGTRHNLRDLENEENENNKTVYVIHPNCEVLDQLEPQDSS

Legend:
Experiment in all cases: two-hybrid; GAL4 DNA-binding domain (pGBD) and GAL4 activation domain (pGAD) fusions co-transformed into PJ69-4α (also its rad51∆, rad55∆, csm2∆, shu1∆ and shu2∆ derivatives); growth on SC-L-W-H, 2-3 days, 30 °C
[1] = biological target: T1, Rad57 (pGBD Rad57) (S. cerevisiae) (UniProt P25301)
T1 sequence: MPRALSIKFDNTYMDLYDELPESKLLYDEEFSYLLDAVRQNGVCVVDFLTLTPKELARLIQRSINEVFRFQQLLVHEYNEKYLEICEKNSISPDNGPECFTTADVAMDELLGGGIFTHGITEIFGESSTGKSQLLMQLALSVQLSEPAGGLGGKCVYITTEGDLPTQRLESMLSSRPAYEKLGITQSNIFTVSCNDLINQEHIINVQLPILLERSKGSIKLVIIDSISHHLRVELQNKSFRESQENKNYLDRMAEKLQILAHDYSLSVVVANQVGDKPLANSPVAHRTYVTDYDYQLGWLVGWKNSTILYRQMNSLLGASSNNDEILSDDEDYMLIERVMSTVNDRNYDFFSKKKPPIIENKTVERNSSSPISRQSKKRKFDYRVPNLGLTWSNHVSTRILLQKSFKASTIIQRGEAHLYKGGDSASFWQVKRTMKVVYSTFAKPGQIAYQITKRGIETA

[2] = biological target: T2, Psy3 (pGBD Psy3) (S. cerevisiae) (UniProt Q12318)
T2 sequence: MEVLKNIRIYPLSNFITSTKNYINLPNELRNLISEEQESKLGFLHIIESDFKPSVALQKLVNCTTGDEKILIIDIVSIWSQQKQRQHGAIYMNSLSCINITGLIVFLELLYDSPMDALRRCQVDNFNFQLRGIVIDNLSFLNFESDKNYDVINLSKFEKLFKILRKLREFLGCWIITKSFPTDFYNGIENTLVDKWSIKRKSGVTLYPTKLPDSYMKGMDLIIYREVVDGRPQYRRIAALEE

[3] = biological target: T3, Rad55 (pGBD Rad55) (S. cerevisiae) (UniProt P38953)
T3 sequence: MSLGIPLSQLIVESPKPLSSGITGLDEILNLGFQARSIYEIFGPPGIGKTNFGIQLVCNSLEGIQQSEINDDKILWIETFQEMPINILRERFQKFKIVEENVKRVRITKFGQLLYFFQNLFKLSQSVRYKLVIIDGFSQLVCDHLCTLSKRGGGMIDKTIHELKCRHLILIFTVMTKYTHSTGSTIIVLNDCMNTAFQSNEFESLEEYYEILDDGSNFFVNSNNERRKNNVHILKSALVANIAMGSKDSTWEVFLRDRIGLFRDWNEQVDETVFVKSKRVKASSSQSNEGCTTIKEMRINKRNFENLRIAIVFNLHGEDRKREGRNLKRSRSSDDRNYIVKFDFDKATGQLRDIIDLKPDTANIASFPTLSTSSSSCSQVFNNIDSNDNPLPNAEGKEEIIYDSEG

[4] = biological target: T4, Psy3-S18A (pGBD psy3-S18A) (S. cerevisiae) (UniProt Q12318)
T4 sequence: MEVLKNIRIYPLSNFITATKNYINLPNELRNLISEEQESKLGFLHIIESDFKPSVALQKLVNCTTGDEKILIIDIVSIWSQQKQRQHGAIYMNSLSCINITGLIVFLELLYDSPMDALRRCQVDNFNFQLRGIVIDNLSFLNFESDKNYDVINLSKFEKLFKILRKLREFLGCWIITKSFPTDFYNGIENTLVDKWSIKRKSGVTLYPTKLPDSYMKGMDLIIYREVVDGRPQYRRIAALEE

[5] = biological target: T2, Psy3 (pGBD Psy3) (S. cerevisiae); remark: listed apart in the source
[6] = biological target: T5, Psy3-F15A (pGBD psy3-F15A) (S. cerevisiae) (UniProt Q12318)
T5 sequence: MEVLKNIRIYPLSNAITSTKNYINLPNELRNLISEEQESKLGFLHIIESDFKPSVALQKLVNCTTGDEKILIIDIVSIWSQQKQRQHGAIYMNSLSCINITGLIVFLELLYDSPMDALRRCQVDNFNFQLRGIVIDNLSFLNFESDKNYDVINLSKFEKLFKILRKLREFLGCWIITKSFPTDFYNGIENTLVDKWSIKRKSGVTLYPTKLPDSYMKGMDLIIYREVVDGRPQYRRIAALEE

[7] = biological target: T6, Psy3-Y10A (pGBD psy3-Y10A) (S. cerevisiae) (UniProt Q12318)
T6 sequence: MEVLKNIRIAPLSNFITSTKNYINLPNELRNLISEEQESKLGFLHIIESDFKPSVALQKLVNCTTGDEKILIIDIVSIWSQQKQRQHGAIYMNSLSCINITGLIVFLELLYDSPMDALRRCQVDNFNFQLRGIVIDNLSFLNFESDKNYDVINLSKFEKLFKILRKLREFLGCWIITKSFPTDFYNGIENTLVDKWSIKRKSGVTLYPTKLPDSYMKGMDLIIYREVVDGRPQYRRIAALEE

[8] = biological target: T7, Mcm10 (pGBD Mcm10) (S. cerevisiae) (UniProt P32354)
T7 sequence: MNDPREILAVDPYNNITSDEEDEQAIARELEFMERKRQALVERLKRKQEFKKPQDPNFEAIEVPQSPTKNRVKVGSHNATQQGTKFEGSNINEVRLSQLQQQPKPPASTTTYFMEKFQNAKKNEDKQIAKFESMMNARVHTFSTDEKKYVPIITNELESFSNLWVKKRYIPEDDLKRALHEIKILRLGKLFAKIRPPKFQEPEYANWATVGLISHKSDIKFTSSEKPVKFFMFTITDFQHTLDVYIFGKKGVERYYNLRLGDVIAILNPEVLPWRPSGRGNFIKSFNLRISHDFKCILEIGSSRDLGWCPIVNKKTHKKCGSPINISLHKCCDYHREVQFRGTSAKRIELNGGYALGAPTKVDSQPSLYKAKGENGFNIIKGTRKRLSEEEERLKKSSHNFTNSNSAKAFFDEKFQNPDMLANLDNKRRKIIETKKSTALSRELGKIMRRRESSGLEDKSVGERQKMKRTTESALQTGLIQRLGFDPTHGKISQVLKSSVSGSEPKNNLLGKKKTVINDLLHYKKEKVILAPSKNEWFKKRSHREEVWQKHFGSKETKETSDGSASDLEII

[9] = biological target: T8, Psy3-T17A (pGBD psy3-T17A) (S. cerevisiae) (UniProt Q12318)
T8 sequence: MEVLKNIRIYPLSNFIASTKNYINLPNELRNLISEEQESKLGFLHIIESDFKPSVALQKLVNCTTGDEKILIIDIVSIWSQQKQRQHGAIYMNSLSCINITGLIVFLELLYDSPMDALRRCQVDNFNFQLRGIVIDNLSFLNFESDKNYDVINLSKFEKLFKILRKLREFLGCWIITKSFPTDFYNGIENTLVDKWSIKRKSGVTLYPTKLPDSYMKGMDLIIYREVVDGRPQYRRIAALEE

[10] = biological target: T9, Psy3-L12A (pGBD psy3-L12A) (S. cerevisiae) (UniProt Q12318)
T9 sequence: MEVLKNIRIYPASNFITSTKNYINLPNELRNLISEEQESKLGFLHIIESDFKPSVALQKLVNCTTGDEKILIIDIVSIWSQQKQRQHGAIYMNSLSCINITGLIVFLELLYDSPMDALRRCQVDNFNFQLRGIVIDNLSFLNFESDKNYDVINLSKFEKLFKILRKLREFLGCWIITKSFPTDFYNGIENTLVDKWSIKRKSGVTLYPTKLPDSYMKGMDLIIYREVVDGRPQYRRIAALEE

Row | Molecule | binding [1] | binding [2] | binding [3] | binding [4] | binding [5] | binding [6] | binding [7] | binding [8] | binding [9] | binding [10]
1 | Mcm3 (pGAD Mcm3) (from UniProt P24279 1-971) | no binding | binds | no binding |  |  |  |  |  |  | 
2 | Mcm6 (pGAD Mcm6) (from UniProt P53091 1-1017) | no binding | binds | no binding |  |  |  |  |  |  | 
3 | Csm2 (pGAD Csm2) (protein, UniProt P40465 1-213) MEYEDLELITIWPSPTKNKLCQFIKQNLSKEHVVTQLFFIDATSSFPLSQFQKLVPPTLPENVRIYENIRINTCLDLEELSAITVKLLQILSMNKINAQRGTEDAVTEPLKIILYINGLEVMFRNSQFKSSPQRSHELLRDTLLKLRVMGNDENENASIRTLLEFPKEQLLDYYLKKNNNTRTSSVRSKRRRIKNGDSLAEYIWKYYADSLFE |  |  |  | binds | binds | binds | binds | no binding | binds | binds
4 | Shu1 (pGAD Shu1) (protein, UniProt P38751 1-150) MQFEERLQQLVESDWSLDQSSPNVLVIVLGDTARKYVELGGLKEHVTTNTVAGHVASRERVSVVFLGRVKYLYMYLTRMQAQANGPQYSNVLVYGLWDLTATQDGPQQLRLLSLVLRQCLSLPSKVEFYPEPPSSSVPARLLRFWDHIIR |  |  |  | binds | binds | binds | binds | no binding | binds | binds
